Reference: PubChem BioAssay AID588342 (National Center for Advancing Translational Sciences (NCATS), 2011)
The whole screen tested about 360,000 compounds, of which about 25,000 (6.9%) were called active. The shares of active, inactive and inconclusive entries below differ from those in the screen. Calls come from the whole dose curve; as a rule, active = well fitted inhibition curve with a large enough effect; inconclusive = small, poorly fitted or top-dose-only effect; inactive = flat fitted curve, though single readings scatter. A potency beside an inconclusive call is a rough fit, not a confirmed value.

Target: Luciferin 4-monooxygenase (Photinus pyralis) (UniProt P08659)
Assay: qHTS profiling assay for firefly luciferase inhibitor/activator using purifed enzyme and Km concentrations of substrates (counterscreen for miR-21 project); note: nearly all actives have a fitted effect of over 55% in size;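 for activity change, negative = inhibition: plate controls were vehicle for no effect and reference inhibitor for full effect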
Conditions: purified FLuc, luminescence inhibition; activity change, negative = inhibition: at 57.5 µM (top of the series)
Procedure, shortened: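 Purified P. pyralis luciferase, 10 nM final, with Km-level 10 uM D-luciferin and 10 uM ATP in 50 mM Tris acetate pH 7.5, 10 mM Mg acetate, 0.01% Tween-20, 0.05% BSA; 6-point qHTS titration about 60 µM downward; luminescence read.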
Potency is the fitted concentration of half-maximal effect; tags give direction and shape of the fitted curve.

Sequence of UniProt P08659 (P08659 whole entry, looked up): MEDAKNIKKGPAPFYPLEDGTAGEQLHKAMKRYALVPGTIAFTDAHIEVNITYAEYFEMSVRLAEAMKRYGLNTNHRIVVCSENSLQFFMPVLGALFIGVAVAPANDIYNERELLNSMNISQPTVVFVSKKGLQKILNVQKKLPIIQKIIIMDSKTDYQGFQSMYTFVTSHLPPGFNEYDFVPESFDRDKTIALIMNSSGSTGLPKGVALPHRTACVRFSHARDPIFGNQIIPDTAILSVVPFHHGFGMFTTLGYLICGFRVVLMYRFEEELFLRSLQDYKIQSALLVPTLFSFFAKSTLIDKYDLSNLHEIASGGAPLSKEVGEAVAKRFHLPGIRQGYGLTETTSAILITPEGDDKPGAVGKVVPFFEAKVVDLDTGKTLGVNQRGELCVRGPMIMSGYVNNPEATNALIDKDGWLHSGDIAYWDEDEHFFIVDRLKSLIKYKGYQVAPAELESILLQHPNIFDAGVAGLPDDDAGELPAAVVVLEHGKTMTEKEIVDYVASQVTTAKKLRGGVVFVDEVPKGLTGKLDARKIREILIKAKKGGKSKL

Q: O=C(O)CCc1nc2cc3ccccc3cc2[nH]1 was tested. Which Potency did it give?
A: inconclusive: 26.9 µM [inhibitor, partial curve, poor fit]

Q: Which Potency does the source give for COc1ccc(NC2=C(Cl)C(=O)N(CCc3ccccc3)C2=O)c(OC)c1 here?
A: inconclusive: 23.9 µM [inhibitor, partial curve]

Q: O=C(Nc1ccc2oc(-c3cccnc3)nc2c1)c1ccco1 was tested. Which Potency did it give?
A: active: 15.1 µM

Q: Which Potency does the source give for O=C(O)c1c2c(nc3ccccc13)/C(=C/c1c(F)cccc1F)CCC2 here?
A: inconclusive: 26.9 µM [inhibitor, single point]

Q: Which “activity change, negative = inhibition” value does the source give for CCOc1ccc(N(CC)C(=O)Cn2cnc3sc(C)c(S(=O)(=O)N4CCN(c5ncccn5)CC4)c3c2=O)cc1 here?
A: inactive: -7.7%

Q: How did the Potency turn out when CC(CN1CCCC1)OC(=O)c1ccc(Cl)cc1Cl (centres undefined) was run?
A: inconclusive: 26.9 µM [inhibitor, partial curve, poor fit]

Q: Cc1cc(NS(=O)(=O)c2ccc(NC(=O)COc3cc(C)c(Br)cc3C(C)C)cc2)no1 was tested. Which Potency did it give?
A: inconclusive: 10.7 µM [inhibitor, partial curve]

Q: Which Potency does the source give for COc1cccc2cc(C(=O)Nc3ccc(C)cc3)c(=O)oc12 here?
A: active: 0.379 µM

Q: For O=C(c1ccccc1)c1ccc(N2CCNCC2)cc1, which Potency is on record?
A: inconclusive: 21.3 µM [inhibitor, single point]

Q: For Cc1ccc(NC(=O)OCCNC(=O)OC(C)C)cc1, which Potency is on record?
A: inconclusive: 26.9 µM [inhibitor, partial curve, poor fit]

Q: For Cc1ccc(/C(N)=N/OC(=O)c2ccc(C)cc2Cl)cc1, which Potency is on record?
A: active: 0.849 µM

Q: How did the Potency turn out when CCOc1ccc(N2CC(C(=O)Nc3ccc4c(c3)OCCO4)CC2=O)cc1 (centres undefined) was run?
A: inconclusive: 26.9 µM [inhibitor, partial curve, poor fit]

Q: For CCN(c1ccccc1)S(=O)(=O)c1ccc(OC)c(NC(=O)Cn2cnc3c2c(=O)n(C)c(=O)n3C)c1, which “activity change, negative = inhibition” value is on record?
A: inactive: -1.3%

Q: COc1cc(NC(=O)COC(=O)/C=C/c2ccccc2Cl)cc(OC)c1 was tested. Which Potency did it give?
A: inconclusive: 7.57 µM [inhibitor, partial curve, poor fit]

Q: Which Potency does the source give for O=C(NC1CCCCC1)c1noc2c1CCCCC2 here?
A: active: 9.53 µM

Q: With COc1cccc(-c2cc(C(=O)N3CCc4ccccc4C3)[nH]n2)c1 as the compound, how does the Potency read?
A: active: 10.7 µM

Q: How did the Potency turn out when O=C(CSc1nc2[nH]c(=O)[nH]c(=O)c2s1)Nc1cccc(F)c1 was run?
A: inconclusive: 37.9 µM [inhibitor, partial curve, poor fit]

Q: With Cc1c(C)c2c(OCC(=O)NCc3ccco3)cc3c(c2oc1=O)CCC(C)(C)O3 as the compound, how does the “activity change, negative = inhibition” value read?
A: inactive: 3.51%

Q: Which Potency does the source give for O=C(CCN1C(=O)/C(=C\c2cccc(Br)c2)SC1=S)NCCCN1CCOCC1 here?
A: inconclusive: 23.9 µM [inhibitor, partial curve, poor fit]

Q: CCCn1c(N)c(N(CCOC)C(=O)c2c(CC)noc2C)c(=O)[nH]c1=O was tested. Which “activity change, negative = inhibition” value did it give?
A: inactive: -0.308%

Q: How did the “activity change, negative = inhibition” value turn out when COc1ccc(NC(=O)COC(=O)c2cc(OC)c(OC)c(OC)c2)c([N+](=O)[O-])c1 was run?
A: inactive: -3.02%

Q: For CCC(C)NC(=O)Cn1ccc2cc(S(=O)(=O)N3CCCCCC3)ccc21 (centres undefined), which Potency is on record?
A: inactive

Q: CCc1ccc2oc(-c3cc(NC(=O)c4cccs4)ccc3Cl)nc2c1 was tested. Which Potency did it give?
A: inconclusive: 9.53 µM [inhibitor, partial curve]

Q: COc1ccc(NCc2ccc([N+](=O)[O-])s2)cc1 was tested. Which Potency did it give?
A: inconclusive: 37.9 µM [inhibitor, partial curve, poor fit]

Q: CCc1cc(=O)oc2c3c(cc(OCC(=O)NCCCCCC(=O)O)c12)OC(C)(C)CC3 was tested. Which Potency did it give?
A: inconclusive: 23.9 µM [inhibitor, single point]

Q: With C#CCOCCOCCOCCNc1nc(N2CCN(C(=O)C(Cc3cc4ccccc4[nH]3)n3cc(C(N)Cc4ccc(O)cc4)nn3)CC2)nc(N2CCN(C(=O)C(Cc3cc4ccccc4[nH]3)n3cc(C(N)Cc4ccc(O)cc4)nn3)CC2)n1 (centres undefined) as the compound, how does the “activity change, negative = inhibition” value read?
A: inactive: 1.56%

Q: With COc1cc(C(=O)Oc2cccc(Nc3ncnc4ccccc34)c2)cc(OC)c1OC as the compound, how does the Potency read?
A: inconclusive: 26.9 µM [inhibitor, partial curve, poor fit]

Q: For Cc1ccc(NC(=O)NCC(c2ccccc2)N(C)C)cc1 (centres undefined), which Potency is on record?
A: inconclusive: 37.9 µM [inhibitor, single point]

Q: How did the Potency turn out when O=C(Nc1ccccc1C(=O)N1CCCCC1)c1nsc2ccccc12 was run?
A: inconclusive: 30.1 µM [inhibitor, single point]

Q: For CS(=O)(=O)c1ccc2nc(NC(=O)c3ccc(S(=O)(=O)NCC4CCCO4)cc3)sc2c1 (centres undefined), which Potency is on record?
A: inconclusive: 23.9 µM [inhibitor, partial curve]

Q: For CCCCCc1ccc(-c2cn(Cc3cccc(OC)c3)nn2)cc1, which Potency is on record?
A: inconclusive: 37.9 µM [inhibitor, single point]

Q: How did the Potency turn out when Cc1ccnc(NC(=O)Cn2c(=O)oc3ccccc32)c1 was run?
A: inconclusive: 33.8 µM [inhibitor, partial curve, poor fit]

Q: With Cc1ccc2nc(SCC(=O)NCc3ccc(F)cc3)nc(=O)n2c1 as the compound, how does the “activity change, negative = inhibition” value read?
A: inactive: -2.47%

Q: For N#C/C(N)=C(/C#N)N=Cc1cccc(Cl)c1, which “activity change, negative = inhibition” value is on record?
A: inactive: -11%

Q: How did the Potency turn out when CNC(=O)c1cnc2sc(N3CCC(C)CC3)nn2c1=O was run?
A: inconclusive: 26.9 µM [inhibitor, partial curve, poor fit]

Q: For COc1cccc(Nc2nc(CC(C)=O)ns2)c1, which Potency is on record?
A: inconclusive: 26.9 µM [inhibitor, single point]

Q: With COC(=O)CN1C(=O)CSc2ccc(S(=O)(=O)Nc3ccc(C)c(Cl)c3)cc21 as the compound, how does the Potency read?
A: inconclusive: 15.1 µM [inhibitor, partial curve, poor fit]

Q: For O=C(O)CN1C(=O)/C(=C\c2cccc(OC(=O)c3ccco3)c2)SC1=S, which Potency is on record?
A: active: 23.9 µM

Q: How did the Potency turn out when O=c1c2ccccc2nc(/C=C/c2ccc(Br)cc2)n1CCCO was run?
A: inconclusive: 37.9 µM [inhibitor, partial curve, poor fit]

Q: How did the “activity change, negative = inhibition” value turn out when Cc1cccn2c(=O)nc(SCC(=O)N3CCN(c4ccccc4)CC3)nc12 was run?
A: inactive: 0.744%

Q: With CCOCC(=O)Nc1nc2ccc(C)cc2s1 as the compound, how does the Potency read?
A: active: 9.53 µM

Q: With CC(=O)c1ccc(OCc2cc(C(=O)NCCn3nc(C)cc3C)no2)cc1 as the compound, how does the Potency read?
A: inconclusive: 33.8 µM [inhibitor, single point]

Q: With COc1ccc(OCC(=O)NNC(=S)NC(=O)c2ccc(Br)o2)cc1 as the compound, how does the Potency read?
A: inconclusive: 26.9 µM [inhibitor, single point]

Q: For CCOc1cc(C(=O)NC(=S)Nn2cnnc2)cc(OCC)c1OCC, which Potency is on record?
A: inconclusive: 37.9 µM [inhibitor, partial curve, poor fit]

Q: CCOC(=O)c1cc(C)n(Cc2ccccc2)c1C was tested. Which Potency did it give?
A: inconclusive: 23.9 µM [inhibitor, partial curve, poor fit]

Q: With O=C(Nc1nc2c(F)cc(F)cc2s1)C1CC1 as the compound, how does the Potency read?
A: inconclusive: 21.3 µM [inhibitor, single point]

Q: For COc1ccccc1NC(=O)c1ncn(-c2ccccc2)n1, which Potency is on record?
A: inconclusive: 23.9 µM [inhibitor, partial curve]

Q: Which Potency does the source give for COC(=O)C(C)n1cnc2c(nnn2-c2ccc(C)cc2)c1=O (centres undefined) here?
A: inconclusive: 23.9 µM [inhibitor, partial curve, poor fit]

Q: CCCOc1ccc(/C=C/C(=O)N2CCN(c3ccccn3)CC2)cc1 was tested. Which Potency did it give?
A: inconclusive: 9.53 µM [inhibitor, partial curve]

Q: How did the Potency turn out when O=C(N1CCCCC1)C1(S(=O)(=O)c2ccccc2)CC=CC1 was run?
A: inconclusive: 26.9 µM [inhibitor, partial curve, poor fit]

Q: How did the Potency turn out when COc1ccc(N(CC(=O)Nc2ccccc2C(=O)O)S(=O)(=O)c2ccc(C)c([N+](=O)[O-])c2)cc1 was run?
A: inconclusive: 37.9 µM [inhibitor, partial curve, poor fit]

Q: Which “activity change, negative = inhibition” value does the source give for CCCCN(CCCC)CCCNC(=O)c1ccc2nc(N3CCCCC3)sc2c1 here?
A: inactive: 3.81%

Q: With COc1ccc2c(c1)c1c(c(=O)n(-c3cc(Cl)ccc3C)c(=O)n1CC(=O)N1CCCC1)n2C as the compound, how does the “activity change, negative = inhibition” value read?
A: inactive: -2.55%

Q: For COc1ccc(-c2nnn3c2nc(NCCc2ccc(OC)c(OC)c2)c2ccccc23)cc1, which “activity change, negative = inhibition” value is on record?
A: inactive: 6.77%

Q: For Cc1ccc(C(=O)N/N=C\c2ccc[nH]2)cn1, which Potency is on record?
A: inconclusive: 26.9 µM [inhibitor, partial curve]

Q: For CNC(=O)COc1ncnc2sc(C)c(C)c12, which Potency is on record?
A: inconclusive: 21.3 µM [inhibitor, partial curve, poor fit]

Q: With Cn1cccc1C(=O)OCc1ccc(C(C)(C)C)cc1 as the compound, how does the Potency read?
A: active: 10.7 µM

Q: For CCN(CC)S(=O)(=O)c1nnc(NC(=O)c2ccco2)s1, which Potency is on record?
A: active: 26.9 µM

Q: With C/C(=N\Nc1cc(C)nc(-c2ccccc2)n1)c1cccc([N+](=O)[O-])c1 as the compound, how does the Potency read?
A: inconclusive: 37.9 µM [inhibitor, partial curve, poor fit]

Q: Cc1cc(NC(=O)c2ccc(F)cc2)n(C)n1 was tested. Which “activity change, negative = inhibition” value did it give?
A: inactive: -27%

Q: Which Potency does the source give for O=C(c1cccc(-c2nnc(-c3ccccc3)o2)c1)N1CCCCCC1 here?
A: active: 16.9 µM

Q: Which Potency does the source give for CNC(=O)c1cc2ccc(OC)cc2oc1=O here?
A: inconclusive: 33.8 µM [inhibitor, partial curve, poor fit]

Q: Which Potency does the source give for COc1cccc(C(=O)Nc2ccc3nc(N4CCOCC4)cc(C)c3c2)c1 here?
A: inconclusive: 26.9 µM [inhibitor, partial curve, poor fit]

Q: How did the Potency turn out when Cc1cc(C)nc(N/N=C/c2ccccc2OCc2ccccc2)n1 was run?
A: inconclusive: 19 µM [inhibitor, partial curve]

Q: c1ccc(-c2cc(N3CCCCC3)ncn2)cc1 was tested. Which Potency did it give?
A: active: 10.7 µM

Q: COc1cc(/C=N/N2CCOCC2)ccc1OCc1ccccc1 was tested. Which “activity change, negative = inhibition” value did it give?
A: inactive: -17.4%

Q: Which “activity change, negative = inhibition” value does the source give for COC(=O)Cc1coc2cc(OC)ccc12 here?
A: inactive: -10%

Q: COc1cc(C2c3c([nH]c(=O)[nH]c3=O)Nc3ccc4ccccc4c32)cc(OC)c1OC (centres undefined) was tested. Which Potency did it give?
A: inconclusive: 37.9 µM [inhibitor, single point]

Q: For Cc1cccc(OCCn2c(=S)[nH]c3ccccc32)c1, which Potency is on record?
A: inconclusive: 23.9 µM [inhibitor, single point]
